{"source": "paper PMC12820563", "about": "“FoxP3 forms a head-to-head dimer in vivo and stabilizes its multimerization on adjacent microsatellites”", "note": "Some of the results follow."}
{"biological_target": "T1, MBP-FoxP1dN (Mus musculus, UniProt P58462 326-579)", "T1 sequence": "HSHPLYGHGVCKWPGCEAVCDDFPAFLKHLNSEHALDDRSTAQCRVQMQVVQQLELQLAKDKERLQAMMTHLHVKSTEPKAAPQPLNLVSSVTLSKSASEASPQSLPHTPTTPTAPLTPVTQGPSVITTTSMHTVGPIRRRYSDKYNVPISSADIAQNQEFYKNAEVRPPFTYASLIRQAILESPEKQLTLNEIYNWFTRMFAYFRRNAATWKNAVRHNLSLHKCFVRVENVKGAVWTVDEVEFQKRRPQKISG", "assay": "PD-seq (MBP pull-down with sequencing); 20 mM Tris-HCl pH 7.5, 100 mM NaCl, 1.5 mM MgCl2, 0.4 uM protein, 0.1 uM dsDNA library, 30 min, room temperature, amylose pull-down; high values mean tight binding", "details": "protein: recombinant; tags: His6-MBP; chain copies: 2; dsDNA, one strand shown", "procedure,_shortened": "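A fragment of mouse FoxP3 or FoxP1 without its N-terminus, carrying a His6-MBP tag and produced in E. coli, was combined at 0.4 µM with a 0.1 µM degenerate double-stranded DNA library filled in with Klenow. The mixture sat for 30 min at room temperature in Tris pH 7.5 buffer containing NaCl and MgCl2. Protein–DNA complexes were captured on amylose resin, washed three times, and the DNA was freed with proteinase K, barcoded by PCR and sequenced on Illumina. Binding is expressed as reads-per-million enrichment of pull-down over input, with replicates pooled.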"}
{"sequence": "GATGATTGTTCTCCCAGCTGATGAATTGCGCACGTCGAGTAAACAAATTTTCCTAATCTTTCTGTTCAAGCGCCATCTAC", "binding signal": "1.13 RPM ratio (pull-down/input)"}
{"sequence": "GATGATTGTTCTCCCAGCTGATGAATTAGGAGCTTCGAGTAAACAAATTTTCCTAATCTTTCTGTTCAAGCGCCATCTAC", "binding signal": "0.802 RPM ratio (pull-down/input)"}
{"sequence": "GATGATTGTTCTCCCAGCTGATGAATTCGCTCGATCGAGTAAACAAATTTTCCTAATCTTTCTGTTCAAGCGCCATCTAC", "binding signal": "0.875 RPM ratio (pull-down/input)"}
{"sequence": "GATGATTGTTCTCCCAGCTGATGAATTGGGTGGTTCGAGTAAACAAATTTTCCTAATCTTTCTGTTCAAGCGCCATCTAC", "binding signal": "0.853 RPM ratio (pull-down/input)"}
{"sequence": "GATGATTGTTCTCCCAGCTGATGAATTACCATTTTCGAGTAAACAAATTTTCCTAATCTTTCTGTTCAAGCGCCATCTAC", "binding signal": "1.18 RPM ratio (pull-down/input)"}
{"sequence": "GATGATTGTTCTCCCAGCTGATGAATTCTTTCTATCGAGTAAACAAATTTTCCTAATCTTTCTGTTCAAGCGCCATCTAC", "binding signal": "0.838 RPM ratio (pull-down/input)"}
{"sequence": "GATGATTGTTCTCCCAGCTGATGAATTTTCCTATTCGAGTAAACAAATTTTCCTAATCTTTCTGTTCAAGCGCCATCTAC", "binding signal": "0.987 RPM ratio (pull-down/input)"}
{"sequence": "GATGATTGTTCTCCCAGCTGATGAATTGCGCGTGTCGAGTAAACAAATTTTCCTAATCTTTCTGTTCAAGCGCCATCTAC", "binding signal": "1.09 RPM ratio (pull-down/input)"}
{"sequence": "GATGATTGTTCTCCCAGCTGATGAATTGATGCTCTCGAGTAAACAAATTTTCCTAATCTTTCTGTTCAAGCGCCATCTAC", "binding signal": "1.18 RPM ratio (pull-down/input)"}
{"sequence": "GATGATTGTTCTCCCAGCTGATGAATTGACGTGTTCGAGTAAACAAATTTTCCTAATCTTTCTGTTCAAGCGCCATCTAC", "binding signal": "1.21 RPM ratio (pull-down/input)"}
{"sequence": "GATGATTGTTCTCCCAGCTGATGAATTGCATGGGTCGAGTAAACAAATTTTCCTAATCTTTCTGTTCAAGCGCCATCTAC", "binding signal": "1 RPM ratio (pull-down/input)"}
{"sequence": "GATGATTGTTCTCCCAGCTGATGAATTGGTAATTTCGAGTAAACAAATTTTCCTAATCTTTCTGTTCAAGCGCCATCTAC", "binding signal": "1.15 RPM ratio (pull-down/input)"}
{"sequence": "GATGATTGTTCTCCCAGCTGATGAATTCTTGTCATCGAGTAAACAAATTTTCCTAATCTTTCTGTTCAAGCGCCATCTAC", "binding signal": "1.3 RPM ratio (pull-down/input)"}
{"sequence": "GATGATTGTTCTCCCAGCTGATGAATTGTTACGCTCGAGTAAACAAATTTTCCTAATCTTTCTGTTCAAGCGCCATCTAC", "binding signal": "1.18 RPM ratio (pull-down/input)"}
{"sequence": "GATGATTGTTCTCCCAGCTGATGAATTAATTCGCTCGAGTAAACAAATTTTCCTAATCTTTCTGTTCAAGCGCCATCTAC", "binding signal": "0.935 RPM ratio (pull-down/input)"}
{"sequence": "GATGATTGTTCTCCCAGCTGATGAATTATATCTCTCGAGTAAACAAATTTTCCTAATCTTTCTGTTCAAGCGCCATCTAC", "binding signal": "0.907 RPM ratio (pull-down/input)"}
{"sequence": "GATGATTGTTCTCCCAGCTGATGAATTACGGTCTTCGAGTAAACAAATTTTCCTAATCTTTCTGTTCAAGCGCCATCTAC", "binding signal": "1 RPM ratio (pull-down/input)"}
{"sequence": "GATGATTGTTCTCCCAGCTGATGAATTTAATCCGTCGAGTAAACAAATTTTCCTAATCTTTCTGTTCAAGCGCCATCTAC", "binding signal": "0.931 RPM ratio (pull-down/input)"}
{"sequence": "GATGATTGTTCTCCCAGCTGATGAATTTATGGTATCGAGTAAACAAATTTTCCTAATCTTTCTGTTCAAGCGCCATCTAC", "binding signal": "1.22 RPM ratio (pull-down/input)"}
{"sequence": "GATGATTGTTCTCCCAGCTGATGAATTGATGCGATCGAGTAAACAAATTTTCCTAATCTTTCTGTTCAAGCGCCATCTAC", "binding signal": "1.48 RPM ratio (pull-down/input)"}
{"sequence": "GATGATTGTTCTCCCAGCTGATGAATTGCTTACATCGAGTAAACAAATTTTCCTAATCTTTCTGTTCAAGCGCCATCTAC", "binding signal": "1.59 RPM ratio (pull-down/input)"}
{"sequence": "GATGATTGTTCTCCCAGCTGATGAATTCAGTATATCGAGTAAACAAATTTTCCTAATCTTTCTGTTCAAGCGCCATCTAC", "binding signal": "1.05 RPM ratio (pull-down/input)"}
{"sequence": "GATGATTGTTCTCCCAGCTGATGAATTGAGGAACTCGAGTAAACAAATTTTCCTAATCTTTCTGTTCAAGCGCCATCTAC", "binding signal": "0.766 RPM ratio (pull-down/input)"}
{"sequence": "GATGATTGTTCTCCCAGCTGATGAATTTAGGGTCTCGAGTAAACAAATTTTCCTAATCTTTCTGTTCAAGCGCCATCTAC", "binding signal": "0.927 RPM ratio (pull-down/input)"}
{"sequence": "GATGATTGTTCTCCCAGCTGATGAATTAAAAACTTCGAGTAAACAAATTTTCCTAATCTTTCTGTTCAAGCGCCATCTAC", "binding signal": "1.01 RPM ratio (pull-down/input)"}
{"sequence": "GATGATTGTTCTCCCAGCTGATGAATTACCCGTCTCGAGTAAACAAATTTTCCTAATCTTTCTGTTCAAGCGCCATCTAC", "binding signal": "0.808 RPM ratio (pull-down/input)"}
{"sequence": "GATGATTGTTCTCCCAGCTGATGAATTTTTCAGGTCGAGTAAACAAATTTTCCTAATCTTTCTGTTCAAGCGCCATCTAC", "binding signal": "0.857 RPM ratio (pull-down/input)"}
{"sequence": "GATGATTGTTCTCCCAGCTGATGAATTGTCGGAATCGAGTAAACAAATTTTCCTAATCTTTCTGTTCAAGCGCCATCTAC", "binding signal": "1.05 RPM ratio (pull-down/input)"}
{"sequence": "GATGATTGTTCTCCCAGCTGATGAATTAGCACTGTCGAGTAAACAAATTTTCCTAATCTTTCTGTTCAAGCGCCATCTAC", "binding signal": "0.842 RPM ratio (pull-down/input)"}
{"sequence": "GATGATTGTTCTCCCAGCTGATGAATTTGTTCCCTCGAGTAAACAAATTTTCCTAATCTTTCTGTTCAAGCGCCATCTAC", "binding signal": "1.2 RPM ratio (pull-down/input)"}
{"sequence": "GATGATTGTTCTCCCAGCTGATGAATTTATCCTTTCGAGTAAACAAATTTTCCTAATCTTTCTGTTCAAGCGCCATCTAC", "binding signal": "1.11 RPM ratio (pull-down/input)"}
{"sequence": "GATGATTGTTCTCCCAGCTGATGAATTGTGGAAGTCGAGTAAACAAATTTTCCTAATCTTTCTGTTCAAGCGCCATCTAC", "binding signal": "0.943 RPM ratio (pull-down/input)"}
